# Assay results as given in the supplement of paper PMC8728848.
# Some of the results follow.
# B1: DC-ASGPR L+GEE (Homo sapiens) (protein)
# chain: MTRTYENFQYLENKVKVQGFKNGPLPLQSLLQRLRSGPCHLLLSLGLGLLLLVIICVVGFQNSKFQRDLVTLRTDFSNFTSNTVAEIQALTSQGSSLEETIASLKAEVEGFKQERQAGVSELQEHTTQKAHLGHCPHCPSVCVPVHSEMLLRVQQLVQDLKKLTCQVATLNNNGEEASTEGTCCPVNWVEHQDSCYWFSHSGMSWAEAEKYCQLKNAHLVVINSREEQNFVQKYLGSAYTWMGLSDPEGAWKWVDGTDYATGFQNWKPGQPDDWQGHGLGGGEDCAHFHPDGRWNDDVCQRPYHWVCEAGLGQTSQESH
# Key:
# Assay in all cases: glycan array binding signal (z-score within array); higher = stronger binding
# Conditions in all cases: glycan notation: IUPAC condensed, linker removed
# [1] = biological target: GalNAc(a1-3)GalNAc(b1-3)Gal(a1-4)Gal(b1-4)GlcNAc
# Summary of the method: (§1)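 Glycan array binding is given as a within-array Z-score, which can be read as non-binding when negative. The arrays, 3228 of them, came from the Consortium for Functional Glycomics database and were retained only where the protein sequence was available. Z-scores were averaged across arrays of the same protein sequence at different concentrations or buffers and across linkers.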
# [2] = biological target: GalNAc(b1-3)Gal
# Summary of the method: as §1
# [3] = biological target: GalNAc(b1-3)Gal(a1-4)Gal(b1-4)GlcNAc
# Summary of the method: as §1
# [4] = biological target: GalNAc(b1-3)Gal(a1-4)Gal(b1-4)GlcNAc(b1-3)Gal(b1-4)Glc
# Summary of the method: as §1
# [5] = biological target: GalNAc(b1-3)Gal(a1-6)Gal(b1-4)Glc
# Summary of the method: as §1
# [6] = biological target: GalNAc(b1-3)GalNAc
# Summary of the method: as §1
# [7] = biological target: GalNAc(b1-3)GlcNAc
# Summary of the method: as §1
# [8] = biological target: GalNAc(b1-4)Gal(b1-4)Glc
# Summary of the method: as §1
# [9] = biological target: GalNAc(b1-4)GlcNAc
# Summary of the method: as §1
# [10] = biological target: GalNAc(b1-4)GlcNAc(b1-2)Man
# Summary of the method: as §1
# [11] = biological target: GalNAc(b1-4)GlcNAc(b1-2)Man(a1-3)[GalNAc(b1-4)GlcNAc(b1-2)Man(a1-6)]Man(b1-4)GlcNAc(b1-4)GlcNAc
# Summary of the method: as §1
# [12] = biological target: GalNAc(b1-4)GlcNAc(b1-3)GalNAc(b1-4)GlcNAc
# Summary of the method: as §1
# [13] = biological target: GalNAc(b1-4)GlcNAc6S
# Summary of the method: as §1
# [14] = biological target: GalNAc(b1-6)GalNAc
# Summary of the method: as §1
# [15] = biological target: GalNAc3S(b1-4)GlcNAc
# Summary of the method: as §1
# [16] = biological target: GalNAc3S(b1-4)GlcNAc3S
# Summary of the method: as §1
# [17] = biological target: GalNAc3S(b1-4)[Fuc(a1-3)]GlcNAc
# Summary of the method: as §1
# [18] = biological target: GalNAc4S6S(b1-4)GlcNAc
# Summary of the method: as §1
# [19] = biological target: GalNAc6S(b1-4)GlcNAc
# Summary of the method: as §1
# [20] = biological target: Glc(a1-4)Glc
# Summary of the method: as §1
# [21] = biological target: Glc(a1-4)Glc(a1-4)Glc(a1-4)Glc
# Summary of the method: as §1
# [22] = biological target: Glc(a1-6)Glc(a1-6)Glc
# Summary of the method: as §1
# [23] = biological target: Glc(a1-6)Glc(a1-6)Glc(a1-6)Glc
# Summary of the method: as §1
# [24] = biological target: Glc(b1-4)Glc
# Summary of the method: as §1
# [25] = biological target: Glc(b1-6)Glc
# Summary of the method: as §1
# [26] = biological target: GlcA(b1-3)Gal
# Summary of the method: as §1
# [27] = biological target: GlcA(b1-3)GlcNAc
# Summary of the method: as §1
# [28] = biological target: GlcA(b1-6)Gal
# Summary of the method: as §1
# [29] = biological target: GlcA3S(b1-3)Gal(b1-4)GlcNAc(b1-2)Man
# Summary of the method: as §1
# [30] = biological target: GlcA3S(b1-3)Gal(b1-4)GlcNAc(b1-3)Gal(b1-4)Glc
# Summary of the method: as §1
# [31] = biological target: GlcNAc(a1-3)Gal(b1-4)GlcNAc
# Summary of the method: as §1
# [32] = biological target: GlcNAc(a1-4)Gal(b1-3)GlcNAc
# Summary of the method: as §1
# [33] = biological target: GlcNAc(a1-4)Gal(b1-4)GalNAc
# Summary of the method: as §1
# [34] = biological target: GlcNAc(a1-4)Gal(b1-4)GlcNAc
# Summary of the method: as §1
# [35] = biological target: GlcNAc(a1-4)Gal(b1-4)GlcNAc(b1-3)Gal(b1-4)Glc
# Summary of the method: as §1
# [36] = biological target: GlcNAc(a1-4)Gal(b1-4)GlcNAc(b1-3)Gal(b1-4)GlcNAc
# Summary of the method: as §1
# [37] = biological target: GlcNAc(a1-4)Gal(b1-4)GlcNAc(b1-3)Gal(b1-4)GlcNAc(b1-3)Gal(b1-4)GlcNAc
# Summary of the method: as §1
# [38] = biological target: GlcNAc(a1-4)Gal(b1-4)GlcNAc(b1-3)Gal(b1-4)[Fuc(a1-3)]GlcNAc(b1-3)Gal(b1-4)[Fuc(a1-3)]GlcNAc
# Summary of the method: as §1
binder,measurement,setting,value
B1,glycan array binding signal (z-score),[1],1.31
same,glycan array binding signal (z-score),[2],3.04
same,glycan array binding signal (z-score),[3],4.33
same,glycan array binding signal (z-score),[4],4.06
same,glycan array binding signal (z-score),[5],1.59
same,glycan array binding signal (z-score),[6],0.206
same,glycan array binding signal (z-score),[7],1.66
same,glycan array binding signal (z-score),[8],-0.512
same,glycan array binding signal (z-score),[9],2.13
same,glycan array binding signal (z-score),[10],1.01
same,glycan array binding signal (z-score),[11],0.807
same,glycan array binding signal (z-score),[12],2.36
same,glycan array binding signal (z-score),[13],2.26
same,glycan array binding signal (z-score),[14],-0.246
same,glycan array binding signal (z-score),[15],-0.536
same,glycan array binding signal (z-score),[16],0.245
same,glycan array binding signal (z-score),[17],-0.453
same,glycan array binding signal (z-score),[18],0.206
same,glycan array binding signal (z-score),[19],1.11
same,glycan array binding signal (z-score),[20],-0.196
same,glycan array binding signal (z-score),[21],-0.607
same,glycan array binding signal (z-score),[22],-0.353
same,glycan array binding signal (z-score),[23],-0.243
same,glycan array binding signal (z-score),[24],-0.46
same,glycan array binding signal (z-score),[25],-0.795
same,glycan array binding signal (z-score),[26],-0.508
same,glycan array binding signal (z-score),[27],-0.546
same,glycan array binding signal (z-score),[28],-0.198
same,glycan array binding signal (z-score),[29],0.035
same,glycan array binding signal (z-score),[30],-0.149
same,glycan array binding signal (z-score),[31],0.302
same,glycan array binding signal (z-score),[32],-0.553
same,glycan array binding signal (z-score),[33],-0.609
same,glycan array binding signal (z-score),[34],-0.367
same,glycan array binding signal (z-score),[35],-0.225
same,glycan array binding signal (z-score),[36],0.092
same,glycan array binding signal (z-score),[37],-0.224
same,glycan array binding signal (z-score),[38],-0.234
